# In all, about 310,000 compounds went through this assay and about 2,200 (0.71%) showed an effect of 50% or more. Effects have a minus sign here. This is one part of the list.
# Target: human ether-à-go-go-related gene (hERG) potassium channel (human, UniProt Q12809)
# Assay: primary screen, population patch clamp on CHO cells stably expressing hERG
# Sequence of human ether-à-go-go-related gene (hERG) potassium channel (Q12809 whole entry, looked up): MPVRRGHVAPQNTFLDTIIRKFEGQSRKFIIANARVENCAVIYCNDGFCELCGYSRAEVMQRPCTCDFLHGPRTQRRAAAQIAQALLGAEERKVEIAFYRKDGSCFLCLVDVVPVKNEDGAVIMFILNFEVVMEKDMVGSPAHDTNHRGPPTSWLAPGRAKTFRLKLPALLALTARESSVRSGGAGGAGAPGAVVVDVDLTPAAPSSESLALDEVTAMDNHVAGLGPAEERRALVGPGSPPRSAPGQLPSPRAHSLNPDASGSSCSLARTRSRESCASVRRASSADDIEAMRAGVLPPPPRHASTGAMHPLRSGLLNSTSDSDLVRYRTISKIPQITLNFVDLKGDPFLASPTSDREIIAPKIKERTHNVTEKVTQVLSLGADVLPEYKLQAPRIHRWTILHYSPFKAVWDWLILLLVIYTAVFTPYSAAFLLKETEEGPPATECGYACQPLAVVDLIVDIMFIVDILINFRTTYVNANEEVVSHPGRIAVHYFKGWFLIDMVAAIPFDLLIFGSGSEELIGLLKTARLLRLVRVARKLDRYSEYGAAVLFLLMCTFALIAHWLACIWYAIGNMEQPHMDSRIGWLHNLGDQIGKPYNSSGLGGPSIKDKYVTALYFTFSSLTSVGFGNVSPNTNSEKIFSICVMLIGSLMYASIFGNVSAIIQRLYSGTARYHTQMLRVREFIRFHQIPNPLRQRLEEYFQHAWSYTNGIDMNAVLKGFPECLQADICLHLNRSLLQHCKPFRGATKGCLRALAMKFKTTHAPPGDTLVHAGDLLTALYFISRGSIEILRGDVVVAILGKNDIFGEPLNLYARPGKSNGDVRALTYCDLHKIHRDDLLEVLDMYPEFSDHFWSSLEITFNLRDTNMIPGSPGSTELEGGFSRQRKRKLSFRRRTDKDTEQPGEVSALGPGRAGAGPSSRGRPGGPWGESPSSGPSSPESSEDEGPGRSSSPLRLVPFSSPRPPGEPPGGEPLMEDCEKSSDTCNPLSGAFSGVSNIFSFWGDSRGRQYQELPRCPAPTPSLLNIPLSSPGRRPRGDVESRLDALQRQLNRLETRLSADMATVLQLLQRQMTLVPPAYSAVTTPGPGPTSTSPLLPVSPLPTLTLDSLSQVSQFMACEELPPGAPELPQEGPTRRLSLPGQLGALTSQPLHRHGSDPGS
row,SMILES,"hERG current change (%, negative = inhibition) at 1uM"
1,O=C(O)C(=O)O.O=[N+]([O-])c1cccc(OCCN2CCC(Cc3ccccc3)CC2)c1,-23.6%
2,CCOC(=O)c1cc2c(C)n(-c3ccc(OCC)cc3)c(C)c2cc(C(=O)OCC)c1=O,6.57%
3,CSc1nnc(CCNC(=O)OC(C)(C)C)o1,13.5%
4,Cc1c(OC(C)C(=O)NCC(O)c2ccccc2)ccc2c3c(c(=O)oc12)CCC3 (stereo not drawn),18.3%
5,Cn1cnnc1SCC(=O)c1cccc([N+](=O)[O-])c1,1.03%
6,Cc1ccccc1Sc1ncnc2onc(C)c12,12.8%
7,COc1ccc(Nc2cc(C(=O)NCCCOC(C)C)c3ccccc3n2)c(OC)c1,13.1%
8,O=C(CCn1c(=O)c2ccccc2n(Cc2cccc([N+](=O)[O-])c2)c1=O)N1CCc2ccccc2C1,-4.9%
9,CCC(O)(CC)C(=O)N(Nc1ccc(C)cc1)c1ccc(C)cc1,17.7%
10,O=C(N[C@@H](Cc1ccccc1)C(=O)NC1CCCCCC1)c1ccco1,25.7%
11,Cc1cc(C)nc(NC(=O)C(c2ccccc2)c2ccccc2)c1,12.6%
12,O=C(CCN1C(=O)COc2ccccc21)NCCN1CCN(c2ccccc2F)CC1,-1.54%
13,C=CCn1c(N)cc(=O)nc1SC(CC)C(=O)Nc1ccc(C(C)=O)cc1 (stereo not drawn),12.6%
14,CCOc1ccc(NC(=O)C(=O)NCc2ccncc2)cc1,-3.08%
15,Cc1ccccc1N1CC(C(=O)Nc2nnc(SCCN3CCOCC3)s2)CC1=O (stereo not drawn),2.12%
16,CCOc1ccccc1C(=O)NCC(=O)OCCCOC(=O)CNC(=O)c1ccccc1OCC,-0.0081%
17,Cc1cc(C)nc(SCC(=O)Nc2ccc3c(c2)OCO3)n1,3.75%
18,CC(=O)NS(=O)(=O)c1ccc(NC(=O)c2ccc(S(=O)(=O)N3CCCC3)cc2)cc1,-2.94%
19,COC(=O)CCN(C(C)=O)c1ccc(N)cc1,18.7%
20,CCN(CC)C1CCN(Cc2c(C(=O)N3CCCCCCC3)nc3ccc(Cl)cn23)C1 (stereo not drawn),10.9%
21,CCOC(=O)C1CCCN(CCC(=O)Nc2ccc(C)c(C)c2)C1.Cl (stereo not drawn),5.91%
22,O=C1c2ccsc2SCCN1Cc1ccc(F)cc1,19.7%
23,C=CCn1c2ccccc2c2nnc(SCc3[nH]c(=O)[nH]c3C(=O)CCCCC(=O)OCC)nc21,11.9%
24,COc1ccccc1CN1CCN(C(CC(C)C)c2nnnn2Cc2cccs2)CC1.Cl (stereo not drawn),-24.5%

# Reference: PMC4336329 (PLoS ONE, 2015)
